# According to the RNAGym collection of RNA variant scans (doi:10.1093/nar/gkz1192):
# The source gives no read counts; variants with many changes may rest on few reads.
# B1: CPEB3 Ribozyme (parent)
# chain: UAACAGGGGGCCACAGCAGAAGCGUUCACGUCGCAGCCCCUGUCAGAUUCUGGUGAAUCUGCGAAUUCUGCUGUAUAUCUC
# Variants of: B1
# Test: self-cleavage, relative activity (ratio to wild type); higher = more cleavage; in vitro, sequencing
# In short: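 After error-prone PCR and barcoding, CPEB3 ribozyme mutant libraries were transcribed with T7 RNA polymerase at 37°C for 5 hours, then given 15 min with DNase I before an EDTA stop, and they cleaved during both steps. Reverse transcription with template switching preceded Illumina sequencing. Relative activity divides a variant's cleaved/total read fraction by the unmutated ribozyme's. At least 5 reads were required per variant, and three batches were averaged.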
row,Variant,self-cleavage
1,A13G A20G U25C A45G U54A,0.49
2,A13G A20G U26A A35U,0.16
3,A13G A20G U26A U43C,0.31
4,A13G A20G U26C U41A U51A G63U U69A,0.04
5,A13G A20G U31A U41C U51A,0.26
6,A13G A20G U31C,0.32
7,A13G A20G U31C A64G A65G U72C,0.33
8,A13G A20G U31C U43C U78A,0.45
9,A13G A20G U31C U51C A57G,0.36
10,A13G A20G U31C U51C G52C,0.39
11,A13G A20G U31C U72C,0.43
12,A13G A20G U41C A47G,0.51
13,A13G A20G U43A A64G,0.4
14,A13G A20G U48C,0.38
15,A13G A20G U48C A64C,0.16
16,A13G A20G U48C C62U A65G C68A U72C,0.05
17,A13G A20G U48C G52A G63U,0.08
18,A13G A20G U48C U54C,0.15
19,A13G A20G U49A,0.55
20,A13G A20G U51G,0.54
21,A13G A20G U60G,0.17
22,A13G A20G U72C U78A,0.79
23,A13G A20G U74A,1.1
24,A13G A20U A21U U43A,0.14

row,Variant,self-cleavage
1,A13G A20U A35G,0.36
2,A13G A20U A35G G52C U72A,0.09
3,A13G A20U A47G A64G,0.41
4,A13G A20U A56G U78C,0.13
5,A13G A20U A75U,0.14
6,A13G A20U C23U C38U A47G U51A,0.07
7,A13G A20U C37U U67C U72C U76C,0.26
8,A13G A20U G33A A35G U54C A64G,0.08
9,A13G A20U G46A A57G U60C G61A,0.11
10,A13G A20U U25C A45G A77G,0.32
11,A13G A20U U26C U43A A75G,0.16
12,A13G A20U U31C,0.25
13,A13G A20U U41A,0.2
14,A13G A20U U41C A75U,0.32
15,A13G A20U U49G,0.08
16,A13G A20U U54G G63A,0.17
17,A13G A20U U66C,0.3
18,A13G A20U U80C,0.29
19,A13G A21C A28U C40G A45C A56U A57G,0.2
20,A13G A21C A45C,0.25
21,A13G A21C U25A A45C,0.21
22,A13G A21C U31A A45U U51A U54C U72A,0.04
23,A13G A21C U60C U69C U78A,0.06
24,A13G A21G A28G G42U U43C U69C,0.28

row,Variant,self-cleavage
1,A13G A21G A28G U41A U43A,0.36
2,A13G A21G A35G,0.36
3,A13G A21G A45G U49G U78G,0.55
4,A13G A21G A45U A56U G73A,0.46
5,A13G A21G A56C,0.19
6,A13G A21G A56G,0.38
7,A13G A21G A56G U80A,0.51
8,A13G A21G C23A A64U,0.26
9,A13G A21G C23U C38G G42A U54A,0.07
10,A13G A21G C27A U31C C34U U72A U80C,0.05
11,A13G A21G C29U A56G C71U,0.07
12,A13G A21G C34U,0.02
13,A13G A21G C40U U43A A64U,0.09
14,A13G A21G C62U,0.23
15,A13G A21G C71A A75C,0.07
16,A13G A21G G30A G55A,0.22
17,A13G A21G G42A U72A,0.13
18,A13G A21G G53A G61A A77G C79G,0.39
19,A13G A21G U25A U41A U49A U51G G63A,0.04
20,A13G A21G U25C A57C U60A,0.04
21,A13G A21G U26A C44U A47G U72G A75G,0.04
22,A13G A21G U26A U41A U58C G63U U74C,0.06
23,A13G A21G U26A U41G A45G U51A G53U,0.05
24,A13G A21G U26A U43C U51C C79U,0.42

row,Variant,self-cleavage
1,A13G A21G U31C U48C G52A,0.03
2,A13G A21G U41A A57G A64U,0.13
3,A13G A21G U41A U51C U54C C79U,0.03
4,A13G A21G U51A U69C U76C,0.31
5,A13G A21G U54C U67C,0.1
6,A13G A21G U60A U67C U72A,0.12
7,A13G A21G U69A U72C,0.3
8,A13G A21G U72C,0.36
9,A13G A21U A28U U43C U78C,0.1
10,A13G A21U A47U U66C U69C A77G,0.07
11,A13G A21U A56G U58A U60C,0.08
12,A13G A21U C39A,0.19
13,A13G A21U G52A U72C,0.11
14,A13G A21U U25A A35G U74C,0.06
15,A13G A21U U25C U76C,0.2
16,A13G A21U U26A U31C G61C,0.14
17,A13G A21U U26C C27U A56G,0.17
18,A13G A21U U41C U43C U60C,0.56
19,A13G A21U U51C A57U U76C,0
20,A13G A21U U78C,0.3
21,A13G A28C A47G U48C,0.16
22,A13G A28C C32U C40U A57G U69C,0.06
23,A13G A28C C50A U54C U66C,0.12
24,A13G A28C U31C A45G A56U,0.06

row,Variant,self-cleavage
1,A13G A28C U43C U51C A64G,0.06
2,A13G A28C U66C,0.09
3,A13G A28G A45G A75U,0.29
4,A13G A28G A56G U72C,0.24
5,A13G A28G A64G U74C,0.33
6,A13G A28G C32U U43C A56U U67C U72C,0.02
7,A13G A28G C32U U69G,0.07
8,A13G A28G C34U,0.19
9,A13G A28G C59U C62U A77C,0.06
10,A13G A28G C62U,0.14
11,A13G A28G G30U U41A A57C,0.07
12,A13G A28G G33U A35G C50U U51C U72C,0.15
13,A13G A28G G70C,0.07
14,A13G A28G U31A U43G A47G G63C U80A,0.03
15,A13G A28G U31C C37G,0.3
16,A13G A28G U31C U69C,0
17,A13G A28G U41A A56G U80C,0.52
18,A13G A28G U41C U58C,0.14
19,A13G A28G U43C U48C U80C,0.34
20,A13G A28G U48G U51A U60C,0
21,A13G A28G U54C,0.22
22,A13G A28G U54C A75U,0.26
23,A13G A28G U58C,0.16
24,A13G A28G U76A,0.72

row,Variant,self-cleavage
1,A13G A28U A35G G42A A64G U78C,0
2,A13G A28U A45U A56G U60C U66C,0.09
3,A13G A28U A45U U54A U67G,0.41
4,A13G A28U A56G A57G U80C,0.29
5,A13G A28U A56G U74A,0.78
6,A13G A28U A56U A57G,0.11
7,A13G A28U A64G U78C,0.32
8,A13G A28U C32A,0.24
9,A13G A28U G30A U49C A56G A65U,0.13
10,A13G A28U G33A U74C,0.7
11,A13G A28U G33C U43C,0.24
12,A13G A28U U31C A47G U48C A57G U69C,0.15
13,A13G A28U U31C C40G U41A U54C U69A,0.05
14,A13G A28U U41C,0.33
15,A13G A28U U41C U66C,0.13
16,A13G A28U U51C U60A,0.11
17,A13G A28U U54A U67C,0.16
18,A13G A35C U41A A56G U78G C81U,0.1
19,A13G A35G A56G U72C,0.43
20,A13G A35G A65G,0.38
21,A13G A35G C39G U69C A77G,0.21
22,A13G A35G C40A U76A,0.08
23,A13G A35G U41A G42A C71U,0.08
24,A13G A35G U43A U49C,0.09

row,Variant,self-cleavage
1,A13G A35G U43A U51C,0.62
2,A13G A35G U48C C62A U67C,0.17
3,A13G A35G U48C U69C,0.12
4,A13G A35G U51A,0.72
5,A13G A35G U54G,0.8
6,A13G A35G U60A,0.22
7,A13G A35G U66C U72C,0.4
8,A13G A35G U67A U69C,0.22
9,A13G A35G U67C U80A,0.34
10,A13G A35U A47G,0.32
11,A13G A35U A56G A64G A77G,0.23
12,A13G A35U A56G U60C,0.29
13,A13G A35U C37A U41C A56G A57G,0.12
14,A13G A35U C39A U43C,0.11
15,A13G A35U C62U,0.17
16,A13G A35U G61A,0.15
17,A13G A35U U41A,0.09
18,A13G A35U U41C A65G U80C,0.14
19,A13G A35U U41C U69C A77U,0.2
20,A13G A35U U41G U54A U67C U69A,0.04
21,A13G A35U U49C,0.14
22,A13G A35U U51C U67C,0.13
23,A13G A35U U72A,0.24
